From EP0708091A1, “Indoloylguanidine derivatives” (SUMITOMO PHARMACEUTICALS COMPANY, LIMITED, priority 1994, dated 1996)
Where a name gives a salt, the structure may show the parent alone. At least one structure is not confirmed: it was looked up by name or label, or the drawing left a doubt.

Target: T1, Na⁺/H⁺ exchanger (Rattus norvegicus, UniProt P26431)
T1 construct: using the vascular smooth muscle cells isolated from the rat thoracic aorta; endogenous in cells; host or cells: primary vascular smooth muscle cells isolated from rat thoracic aorta
T1 sequence (P26431 whole entry): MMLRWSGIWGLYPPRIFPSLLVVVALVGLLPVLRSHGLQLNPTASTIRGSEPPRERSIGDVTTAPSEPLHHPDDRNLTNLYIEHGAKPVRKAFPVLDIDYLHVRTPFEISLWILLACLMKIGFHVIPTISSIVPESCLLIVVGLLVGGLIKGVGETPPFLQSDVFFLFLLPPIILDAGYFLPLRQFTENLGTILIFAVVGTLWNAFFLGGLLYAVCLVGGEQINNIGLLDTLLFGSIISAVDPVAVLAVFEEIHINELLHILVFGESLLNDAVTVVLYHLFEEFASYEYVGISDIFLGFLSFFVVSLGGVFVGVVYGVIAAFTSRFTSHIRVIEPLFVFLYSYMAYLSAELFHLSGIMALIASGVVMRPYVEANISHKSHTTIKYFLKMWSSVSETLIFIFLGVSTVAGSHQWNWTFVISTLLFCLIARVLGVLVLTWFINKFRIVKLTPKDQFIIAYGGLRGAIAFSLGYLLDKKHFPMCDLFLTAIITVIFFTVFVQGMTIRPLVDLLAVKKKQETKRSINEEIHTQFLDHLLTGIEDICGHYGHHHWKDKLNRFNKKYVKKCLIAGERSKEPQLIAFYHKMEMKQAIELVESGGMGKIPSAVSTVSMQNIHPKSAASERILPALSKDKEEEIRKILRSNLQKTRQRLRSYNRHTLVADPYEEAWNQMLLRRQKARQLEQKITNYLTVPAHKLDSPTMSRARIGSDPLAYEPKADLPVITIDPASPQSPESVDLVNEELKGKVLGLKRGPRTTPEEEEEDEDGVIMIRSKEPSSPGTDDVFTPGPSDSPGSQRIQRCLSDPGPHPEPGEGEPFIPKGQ
Assay: Inhibition of Na+/H+ exchanger activity in vitro (change in cell viability during acid loading)
Type: cell-based
Parameters: key: *: not measurable due to cytotoxicity
Conditions: cells marked *: not measurable due to cytotoxicity; vascular smooth muscle cells isolated from the rat thoracic aorta
Procedure: Inhibition of Na+/H+ exchanger activity in vitro Method:
The experiment was performed by modifying the method of Mungre et al. described in Exp. Cell Res., 193, 236 (1991). That is, inhibition of the Na⁺/H⁺ exchanger activity was evaluated by the change in cell viability during acid loading, using the vascular smooth muscle cells isolated from the rat thoracic aorta.
The compounds of the present invention shown in Examples were evaluated by the minimum effective concentration (MEC) for the inhibition of the Na⁺/H⁺ exchanger activity.

Cn1c(C(=O)N=C(N)N)cc2ccc(OCCCc3ccccc3)cc21 [Example 68, 1-Methyl-6-(3-phenylpropoxy)-2-indoloylguanidine hydrochloride] was tested, and the “Inhibition of Na^+/H^+ Exchanger MEC” value was “*”.
In the case of Cn1c(C(=O)N=C(N)N)cc2cccc(NC(=O)c3ccccc3)c21 [Example 105, 7-Benzamido-1-methyl-2-indoloylguanidine hydrochloride], the “Inhibition of Na^+/H^+ Exchanger MEC” value is reported as “*”.

Same assay, conditions: minimum effective concentration (MEC); change in cell viability during acid loading; vascular smooth muscle cells isolated from the rat thoracic aorta

In order of rising “Inhibition of Na^+/H^+ Exchanger MEC” value:
1. Cn1c(C(=O)NC(=N)N)cc2c(Cl)ccc(O)c21 [Example 95, 4-Chloro-7-hydroxy-1-methyl-2-indoloylguanidine hydrochloride]  0.003 µM
2. Cn1c(C(=O)N=C(N)N)cc2c(Cl)ccc(OCc3ccc(CN)cc3)c21 [Example 202, 7-[4-(aminomethyl)benzyloxy]-4-chloro-1-methyl-2-indoloylguanidine dihydrochloride]  0.003 µM
3. Cn1c(C(=O)N=C(N)N)cc2cccc(Oc3ccc(N)cc3)c21 [Example 192, 7-(4-aminophenoxy)-1-methyl-2-indoloylguanidine hydrochloride]  0.01 µM
4. CN(C)Cc1ccc(Oc2ccc(Cl)c3cc(C(=O)N=C(N)N)n(C)c23)cc1 [Example 199, 4-chloro-7-[4-(dimethylaminomethyl)phenoxy]-1-methyl-2-indoloylguanidine dihydrochloride]  0.01 µM
5. Cn1c(C(=O)NC(=N)N)cc2c(C(F)(F)F)ccc(OCCN)c21 [Example 173, 7-(2-Aminoethoxy)-1-methyl-4-trifluoromethyl-2-indoloylguanidine dihydrochloride]  0.03 µM
6. CN(C)CCCOc1cc(Cl)c2cc(C(=O)N=C(N)N)n(C)c2c1 [Example 164, 4-Chloro-6-(3-dimethylaminopropoxy)-1-methyl-2-indoloylguanidine dihydrochloride]  0.03 µM
7. Cn1c(C(=O)NC(=N)N)cc2c(Cl)ccc(OCCCCO)c21 [Example 129, 4-Chloro-7-(4-hydroxybutoxy)-1-methyl-2-indoloylguanidine hydrochloride]  0.03 µM
8. Cn1c(C(=O)NC(=N)N)cc2c(Cl)cc(OCCCN)cc21 [Example 122, 6-(3-Aminopropoxy)-4-chloro-1-methyl-2-indoloylguanidine dihydrochloride]  0.03 µM
9. CN(C)CCCOc1ccc(C(F)(F)F)c2cc(C(=O)N=C(N)N)n(C)c12 [Example 169, 7-(3-Dimethylaminopropoxy)-1-methyl-4-trifluoromethyl-2-indoloylguanidine dihydrochloride]  0.03 µM
10. CN(C)CCOc1cc(C(F)(F)F)c2cc(C(=O)N=C(N)N)n(C)c2c1 [Example 161, 6-(2-Dimethylaminoethoxy)-1-methyl-4-trifluoromethyl-2-indoloylguanidine dihydrochloride]  0.03 µM
11. Cc1ccc(O)c2c1cc(C(=O)N=C(N)N)n2C [Example 185, 1,4-Dimethyl-7-hydroxy-2-indoloylguanidine hydrochloride]  0.1 µM
12. CCN(CC)CCOc1cc(Cl)c2cc(C(=O)N=C(N)N)n(C)c2c1 [Example 165, 4-Chloro-6-(2-diethylaminoethoxy)-1-methyl-2-indoloylguanidine dihydrochloride]  0.1 µM
13. CN(C)CCOc1cc(Cl)c2cc(C(=O)N=C(N)N)n(C)c2c1 [Example 163, 4-Chloro-6-(2-dimethylaminoethoxy)-1-methyl-2-indoloylguanidine dihydrochloride]  0.1 µM
14. Cn1c(C(=O)N=C(N)N)cc2c(C(F)(F)F)cc(OCCCN)cc21 [Example 148, 6-(3-aminopropoxy)-1-methyl-4-trifluoromethyl-2-indoloylguanidine dihydrochloride]  0.1 µM
15. NC(N)=NC(=O)c1cc2ccccc2n1CCc1ccccc1 [Example 36, 1-(2-Phenylethyl)-2-indoloylguanidine hydrochloride]  0.1 µM
16. CCN(CC)CCOc1cc(C(F)(F)F)c2cc(C(=O)N=C(N)N)n(C)c2c1 [Example 162, 6-(2-Diethylaminoethoxy)-1-methyl-4-trifluoromethyl-2-indoloylguanidine dihydrochloride]  0.1 µM
17. N=C(N)NC(=O)c1cc2c(Cl)cccc2n1CCCCO [Example 131, 4-Chloro-1-(4-hydroxybutyl)-2-indoloylguanidine hydrochloride]  0.1 µM
18. C=C(C)c1cccc2c1cc(C(=O)NC(=N)N)n2C [Example 76, 4-Isopropenyl-1-methyl-2-indoloylguanidine hydrochloride]  0.3 µM
19. CN(C)CCOc1ccc(Cl)c2cc(C(=O)N=C(N)N)n(C)c12 [Example 65, 4-Chloro-7-(2-dimethylaminoethoxy)-1-methyl-2-indoloylguanidine dihydrochloride]  0.3 µM
20. COc1cccc2cc(C(=O)NC(=N)N)n(C)c12 [Example 83, 7-methoxy-1-methyl-2-indoloylguanidine hydrochloride]  0.3 µM
21. CC(C)Oc1cc(OCCCN)cc2c1cc(C(=O)NC(=N)N)n2C [Example 171, 6-(3-Aminopropoxy)-4-isopropoxy-1-methyl-2-indoloylguanidine dihydrochloride]  0.3 µM
22. Cn1c(C(=O)N=C(N)N)cc2cccc(OCC(N)=O)c21 [Example 63, 7-Carbamoylmethoxy-1-methyl-2-indoloylguanidine hydrochloride]  0.3 µM
23. Cc1cc(OCCCN(C)C)cc2c1cc(C(=O)N=C(N)N)n2C [Example 151, 1,4-Dimethyl-6-(3-dimethylaminopropoxy)-2-indoloylguanidine dihydrochloride]  0.3 µM
24. COc1cc(OCCCN)cc2c1cc(C(=O)NC(=N)N)n2C [Example 170, 6-(3-Aminopropoxy)-4-methoxy-1-methyl-2-indoloylguanidine dihydrochloride]  0.3 µM
25. Cc1cccc2cc(C(=O)N=C(N)N)n(C)c12 [Example 12, 1,7-Dimethyl-2-indoloylguanidine hydrochloride]  0.3 µM
26. N=C(N)NC(=O)c1cc2ccccc2n1CCC(=O)O [Example 134, 1-(2-carboxyethyl)-2-indoloylguanidine hydrochloride]  0.3 µM
27. Cn1c(C(=O)NC(=N)N)cc2c(Cl)ccc(OCCN3CCCC3)c21 [Example 73, 4-Chloro-1-methyl-7-[2-(N-pyrrolidinyl)ethoxy]-2-indoloylguanidine dihydrochloride]  0.3 µM
28. CN(C)CCCn1c(C(=O)NC(=N)N)cc2c(F)cccc21 [Example 180, 1-(3-Dimethylaminopropyl)-4-fluoro-2-indoloylguanidine dihydrochloride]  1 µM
29. N=C(N)NC(=O)c1cc2c(C(F)(F)F)cccc2n1CCCN [Example 140, 1-(3-aminopropyl)-4-trifluoromethyl-2-indoloylguanidine dihydrochloride]  1.0 µM
30. CCOc1cccc2c1cc(C(=O)NC(=N)N)n2C [Example 51, 4-Ethoxy-1-methyl-2-indoloylguanidine hydrochloride]  1.0 µM
31. Cn1c(C(=O)NC(=N)N)cc2c(O)cccc21 [Example 93, 4-Hydroxy-1-methyl-2-indoloylguanidine hydrochloride]  1.0 µM
32. Cn1c(C(=O)NC(=N)N)cc2cccc(OCCc3ccccc3)c21 [Example 59, 1-Methyl-7-(2-phenylethoxy)-2-indoloylguanidine hydrochloride]  1.0 µM
33. Cn1c(C(=O)NC(=N)N)cc2ccc(N)cc21 [Example 87, 6-amino-1-methyl-2-indoloylguanidine hydrochloride]  1.0 µM
34. CC(=O)Nc1ccc2cc(C(=O)N=C(N)N)n(C)c2c1 [Example 100, 6-Acetamido-1-methyl-2-indoloylguanidine hydrochloride]  3.0 µM
35. Cn1c(C(=O)NC(=N)N)cc2ccc(NC(=O)CCc3ccccc3)cc21 [Example 113, 1-Methyl-6-(3-phenylpropionamido)-2-indoloylguanidine hydrochloride]  3.0 µM
36. CC(=O)c1cccc2c1cc(C(=O)NC(=N)N)n2C [Example 49, 4-Acetyl-1-methyl-2-indoloylguanidine hydrochloride]  3.0 µM
37. Cn1c(C(=O)NC(=N)N)cc2cccc(NCCc3ccccc3)c21 [Example 138, 1-methyl-7-(2-phenylethylamino)-2-indoloylguanidine hydrochloride]  3.0 µM
38. Cn1c(C(=O)NC(=N)N)cc2cc(O)ccc21 [Example 91, 5-hydroxy-1-methyl-2-indoloylguanidine hydrochloride]  3.0 µM
39. Cn1c(C(=O)N=C(N)N)cc2ccc(S(C)(=O)=O)cc21 [Example 69, 1-Methyl-6-methylsulfonyl-2-indoloylguanidine hydrochloride]  3.0 µM

For CCOc1ccc2c(c1)cc(C(=O)N=C(N)N)n2C [Example 31, 5-Ethoxy-1-methyl-2-indoloylguanidine hydrochloride], the “Inhibition of Na^+/H^+ Exchanger MEC” value was greater than 10 µM.
In the case of Cn1c(C(=O)NC(=N)N)cc2c(N)cccc21 [Example 88, 4-Amino-1-methyl-2-indoloylguanidine hydrochloride], the “Inhibition of Na^+/H^+ Exchanger MEC” value is reported as greater than 10 µM.
